This is an account of results in PubChem BioAssay (Tox21).

Each structure is given as a SMILES string. Results filed as inconclusive are left out. Unless noted, calls follow the shape of the dose curve; as a rule, active = well fitted curve in the direction sought with a large enough effect in the repeat runs; inconclusive = weak or mixed curves; inactive = no such curve, though single readings can be large; an effect the other way counts as inactive or inconclusive. For part of its entries the source gives two or more results. The list is limited to them. The source may hold further records. Results that share an entry are repeats in other runs, samples, wells, individuals or studies. Some compounds were tested as several samples or in several runs, with calls that do not always agree. Marks in square brackets tell the records apart. A, B and so on number the origins entry by entry.
% is scaled to controls: 0 for no effect and ±100 for the full control effect; potency is read from the fitted curve at half-maximal effect.

The nature of one assay: qHTS assay for small molecules that induce genotoxicity in human embryonic kidney cells expressing luciferase-tagged ATAD5 - cell viability (AID 651634; calls by dose curve; also: nearly all actives have a fitted effect of over 25% in size). Particulars: HEK293T ATAD5-luc cells viability, CellTiter-Fluor, 15.5 h; series mostly up to 83.3 µM. Summed up: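 Quantitative high-throughput format. HEK293T cells expressing ATAD5 fused to luciferase were plated at 2,000 cells/well and treated 15.5 hr with compound versus DMSO. Viability was determined by fluorescent live-cell protease substrate, 30 min at 37C.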
In general terms: In qHTS, concentration-response curves come from the screen itself.
With `CC(=O)Nc1ccc(C(=O)CCl)cc1`, the Potency entry is “inactive [sample A] and active: 61.1 µM [sample B]”.

`O=C(O[C@@H]1Cc2c(O)cc(O)cc2O[C@@H]1c1cc(O)c(O)c(O)c1)c1cc(O)c(O)c(O)c1`: the Potency entry was “active: 61.3 µM [sample A] and inactive [sample B]”.

For `CCc1cc(C(C)(C)C)c(O)c(C(C)(C)C)c1`, the Potency entry was “active: 43.7 µM [sample A] and inactive [sample B]”.

`CC(C)(C)NC(=O)[C@@H]1CN(Cc2cccnc2)CCN1C[C@@H](O)C[C@@H](Cc1ccccc1)C(=O)N[C@H]1c2ccccc2C[C@H]1O`: the Potency entry was “active: 29.8 µM [sample A] and inactive [sample B]”. Regarding `CN(C)c1ccc(C(=C2C=CC(=[N+](C)C)C=C2)c2ccccc2)cc1`, the Potency result was “inactive [sample A] and active: 2.17 µM [sample B]”. Same read-out and setting: with `CCN(CC)C(=S)SSC(=S)N(CC)CC` the entry was “inactive [sample A] and active: 4.86 µM [sample B]”. In the case of `CC(C)CCCCCCc1ccc(O)cc1`, the Potency result is “inactive [sample A] and active: 62.2 µM [sample B] and inactive [sample C]”. On to `Nc1nc(=S)c2[nH]cnc2[nH]1`, for which the Potency result was “active: 13.3 µM [sample A] and inactive [sample B]”.

The nature of another assay: qHTS assay to identify small molecule antagonists of the glucocorticoid receptor (GR) signaling pathway - cell viability counter screen (AID 720693). Also: nearly all actives have a fitted effect of over 55% in size. Particulars: GR-bla HeLa viability, CellTiter-Glo luminescence, 18 h, with 5 nM dexamethasone present; series mostly up to 58.5 µM.
Regarding `COc1ccc(CCN2CCC(Nc3nc4ccccc4n3Cc3ccc(F)cc3)CC2)cc1`, the Potency entry was “inactive [sample A] and active: 17.8 µM [sample B]”. Turning to `CC1=CC(=O)c2ccccc2C1=O`, the Potency result is “inactive [sample A] and active: 54.9 µM [sample B]”. `Cc1ccc(-c2cc(C(F)(F)F)nn2-c2ccc(S(N)(=O)=O)cc2)cc1`: the Potency result is “inactive [sample A] and active: 54.7 µM [sample B]”.

The nature of the next assay: qHTS assay to identify small molecule antagonists of the androgen receptor (AR) signaling pathway using the MDA cell line - cell viability counter screen (AID 743041; also: nearly all actives have a fitted effect of over 45% in size). Particulars: MDA-kb2 viability, CellTiter-Fluor, 16 h, cells co-treated with R1881 androgen agonist; series mostly up to 70.3 µM. Summed up: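 In this qHTS counter assay, fluorescence intensity after CellTiter-Fluor addition indicated viability of MDA-kb2 AR-luc cells given compounds and R1881 for 16 h at 37C.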
With `Cc1c2oc3c(C)ccc(C(=O)N[C@@H]4C(=O)N[C@H](C(C)C)C(=O)N5CCC[C@H]5C(=O)N(C)CC(=O)N(C)[C@@H](C(C)C)C(=O)O[C@@H]4C)c3nc-2c(C(=O)N[C@@H]2C(=O)N[C@H](C(C)C)C(=O)N3CCC[C@H]3C(=O)N(C)CC(=O)N(C)[C@@H](C(C)C)C(=O)O[C@@H]2C)c(N)c1=O`, the Potency entry was “inactive [sample A] and active: 26.6 µM [sample B]”. Regarding `Cc1cc(Cc2cc(C)cc(C(C)(C)C)c2O)c(O)c(C(C)(C)C)c1`, the Potency entry is “inactive [sample A] and active: 61.1 µM [sample B]”. For the compound `CC1=CC(=O)c2ccccc2C1=O`, the Potency entry is “inactive [sample A] and active: 48.6 µM [sample B]”.

As for `CN(C)c1ccc(C(=C2C=CC(=[N+](C)C)C=C2)c2ccccc2)cc1`, the Potency result was “inactive [sample A] and active: 4.33 µM [sample B]”.

For `CCCCCCCCCCCC[N+](C)(C)C`, the Potency result is “inactive [sample A] and active: 13.7 µM [sample B]”.

A further assay is described as follows: qHTS assay to identify small molecule antagonists of the thyroid receptor (TR) signaling pathway (AID 743065). Also: nearly all actives have a fitted effect of over 55% in size. Particulars: GH3.TRE-Luc, T3-stimulated luciferase inhibition, 23.5 h; series mostly up to 70.3 µM. In short, it runs like this:
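GH3.TRE-Luc rat pituitary cells carrying two TR response elements driving luciferase were plated for 4 h, given compound plus 1 nM T3 (final), and incubated 23.5 h at 37 C. ONE-Glo luminescence measured reporter inhibition; CellTiter-Fluor fluorescence tracked cytotoxicity.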
Turning to `CC(=O)C1=C(C)[C@@H]2C[C@@]3(C1)[C@H](C)CC[C@H]3C2(C)C`, the Potency entry was “active: 80.4 µM [sample A] and inactive [sample B]”. Turning to `CCC(C)(C)C(=O)O[C@H]1C[C@@H](C)C=C2C=C[C@H](C)[C@H](CC[C@@H]3C[C@@H](O)CC(=O)O3)[C@H]21`, the Potency entry is “inactive [sample A] and active: 38.6 µM [sample B]”. In the case of `CCCCC(CC)COC(=O)CC(C(=O)OCC(CC)CCCC)S(=O)(=O)O` (stereo not given), the Potency entry is “active: 18.8, 16.8, 58.8, 54.5 µM [separate samples]”.

Turning to `CC(=O)Nc1ccc(C(=O)CCl)cc1`, the Potency result is “inactive [sample A] and active: 6.86 µM [sample B]”. The same measure, in the same setting: next, `CC(C)(C)NC(=O)[C@@H]1CN(Cc2cccnc2)CCN1C[C@@H](O)C[C@@H](Cc1ccccc1)C(=O)N[C@H]1c2ccccc2C[C@H]1O`: “active: 26.6 µM [sample A] and inactive [sample B]”; `O=C1CC2(CCCC2)CC(=O)N1CCCCN1CCN(c2ncccn2)CC1`: “inactive [sample A] and active: 48.6 µM [sample B]”.

The next assay in a line: qHTS assay to identify small molecule antagonists of the peroxisome proliferator-activated receptor gamma (PPARg) signaling pathway - cell viability counter screen (AID 743194). Also: nearly all actives have a fitted effect of over 55% in size. The following applies: PPARg-bla HEK293H viability, CellTiter-Glo luminescence, 17 h, co-treated with 50 nM rosiglitazone; series mostly up to 62.6 µM. In short, it runs like this:
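PPARg-UAS-bla HEK293H cells were plated, rested 5 h at 37 C, then treated with compounds plus rosiglitazone (50 nM final) for 17 h at 37 C; viability was then read by CellTiter-Glo luminescence after 30 min at room temperature.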
For the compound `Clc1ccc2c(c1)C(N1CCNCC1)=Nc1ccccc1O2`, the Potency entry is “active: 54.9 µM [sample A] and inactive [sample B]”. For the compound `CC(C)CCCCCCc1ccc(O)cc1`, the Potency result was “active: 22.3 µM [sample A] and inactive [sample B]”.

In the case of `CCCCCCCCCCCC[N+](C)(C)C`, the Potency result was “inactive [sample A] and active: 6.16 µM [sample B]”.

The next assay is described as follows: qHTS assay to identify small molecule agonists of the constitutive androstane receptor (CAR) signaling pathway - cell viability counter screen (AID 1224836). Also: nearly all actives have a fitted effect of over 45% in size. The following applies: HepG2-CYP2B6-hCAR viability, CellTiter-Fluor, 23 h, PK11195 added to every well; series mostly up to 42.5 µM. Summed up:
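HepG2 cells stably carrying hCAR and a CYP2B6-2.2kb reporter; 15-concentration compounds plus PK11195 (final 0.75 uM), 23 hr at 37 C/5% CO2. Viability read by CellTiter-Fluor fluorescence.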
Regarding `CCCCCC(=O)O[C@]1(C(C)=O)CC[C@H]2[C@@H]3CCC4=CC(=O)CC[C@]4(C)[C@H]3CC[C@@]21C`, the Potency result is “active: 38.3 µM [sample A] and inactive [sample B]”. For the compound `CC(C)CCCCCCc1ccc(O)cc1`, the Potency result was “active: 6.22 µM [sample A] and inactive [sample B]”. Same read-out and setting: with `Cc1ccc(-c2cc(C(F)(F)F)nn2-c2ccc(S(N)(=O)=O)cc2)cc1` the entry was “active: 48.4 µM [sample A] and inactive [sample B]”; with `Nc1ccc(O)cc1`, “active: 28.4 µM [sample A] and inactive [sample B]”. Regarding `Cc1cc(OCCOCC[N+](C)(C)Cc2ccccc2)ccc1C(C)(C)CC(C)(C)C`, the Potency entry is “active: 60.8 µM [sample A] and inactive [sample B]”.
